According to the supplement of paper PMC10338343:
± gives the standard deviation. This is a selection; strong and weak results do not stand in their true shares.

What follows are sequences tested on MIWI (PIWIL1) piRISC loaded with L1MC piRNA (30 nt) (assay: pre-steady-state target cleavage rate (min^-1); MIWI and MILI are mouse PIWI proteins and EfPiwi is from a freshwater sponge; tags in brackets are library labels; higher = faster piRNA-guided slicing of the target). Settings: guide: L1MC piRNA 5'p-UAACUAAAUACUAUGCAAGCUGUAGGUCCU; auxiliary factor: 500 nM mouse GTSF1.
Summary of the method: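 In this Cleave-'n-Seq assay, uncleaved targets were sequenced and normalised to depth and to weakly complementary targets. They came from a transcribed, DNA-blocked target RNA library […] mixed with 1 nM active affinity-purified piRISC carrying one synthetic guide, with or without 500 nM GTSF1 partner protein, in HEPES–potassium acetate buffer at 33 °C for 0–8 or 0–960 min. After three trials were pooled and k3 was capped at 0.0001 min^-1, the pre-steady-state cleavage rate was obtained from a burst-and-steady-state fit.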
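Note: 1 nM active piRISC with 0.1 nM target library at 33 °C single turnover.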

UCCACCUACAGCUUGCAAUGUAUUUUCAAA and UCCUGGAACAGCUUGCUAUAGUAUUUAGUUA are within error of each other in “pre-steady-state target cleavage rate” value: 0.0198 ± 0.0072 for the first, 0.0192 ± 0.006 for the second.

First: UCCUCCUACAGCUUGCUUAGUAUUUUCAAA
Second: UCCUGGAUGUCGAACCAUAGUUAUUUAGUUA
The “pre-steady-state target cleavage rate” value of the first is higher: 0.163 ± 0.031 for the first, under 0.0001 for the second.

Compared with UCCUCCUACAGCUUGCAUAGUAUUAAGAAA, UGGACCUACAGCUUGCAAUCUAUUUAGAAA is lower in “pre-steady-state target cleavage rate” value: 0.301 ± 0.043 for the first, 0.0171 ± 0.0057 for the second.

UCCUGGAUGUCCUUGCAUAGUAUUAUGUUA and UCCUGGAUGUCCUUGGAUAGUUUUUAGUUA are within error of each other in “pre-steady-state target cleavage rate” value: 0.00464 ± 0.004 for the first, 0.00494 ± 0.0029 for the second.

Compared with UCCUGGAACAGCUUGCAAUGUAUUUAGAAA, AGGACCUACAGCUUGGUAAGUAUUUAGUAA is higher in “pre-steady-state target cleavage rate” value: 0.0487 ± 0.015 for the first, 0.162 ± 0.054 for the second.

UCGACCUACAGCUUGCAUUGUAUUUACAAA and UCCUGCUACAGGAUGCAUAGUAUUUAGAAA are within error of each other in “pre-steady-state target cleavage rate” value: 0.154 ± 0.026 for the first, 0.158 ± 0.038 for the second.

Going from AGGACCUACAGCUUGCAUUGUAUUUUCAAA to UCCUCCUACACCUUGCAUAGUAUUUUCAAA, the “pre-steady-state target cleavage rate” value rises from 0.186 ± 0.042 to 0.339 ± 0.071.
